According to paper PMC4080824, “Altered native stability is the dominant basis for susceptibility of α1-antitrypsin mutants to polymerization” (Biochemical Journal, 2014):

Assays:
[1] = target: the molecule itself; assay: FRET or BRET; mutant series; 0.2 mg/ml protein, 4 μM Atto550–Ni-NTA and 4 μM Atto647N–Ni-NTA on the His6 tag, 10 mM NaH2PO4/Na2HPO4, 100 mM NaCl pH 7.4; heat-induced polymerization at 65°C; time to half-maximal signal
[2] = target: the molecule itself; assay: FRET or BRET; mutant series; 0.2 mg/ml protein, 4 μM Atto550–Ni-NTA and 4 μM Atto647N–Ni-NTA on the His6 tag, 10 mM NaH2PO4/Na2HPO4, 100 mM NaCl pH 7.4; heat-induced polymerization at 60°C; time to half-maximal signal
[3] = target: the molecule itself; assay: FRET or BRET; mutant series; 0.2 mg/ml protein, 4 μM Atto550–Ni-NTA and 4 μM Atto647N–Ni-NTA on the His6 tag, 10 mM NaH2PO4/Na2HPO4, 100 mM NaCl pH 7.4; heat-induced polymerization at 55°C; time to half-maximal signal

Protein | polymerization half-time (t0.5) [1] [s] | polymerization half-time (t0.5) [2] [s] | polymerization half-time (t0.5) [3] [s]
α1-antitrypsin C232S (AT_(C232S)) (natural protein, α1-antitrypsin, wild-type (M) ORF with C232S; probably the mature protein without signal peptide (surmised); also called control; source: E. coli SG13009/pREP4 (pQE-30) or BL21(DE3) (pQE-81L), purified; not shown: His6, N-terminal, kept) not shown | 38 | 109 | 880
α1-antitrypsin C232S K331V (natural protein, α1-antitrypsin, wild-type (M) ORF on the C232S background; Same construct as m3 with the stated changes; source: E. coli SG13009/pREP4 (pQE-30) or BL21(DE3) (pQE-81L), purified; not shown: His6, N-terminal, kept) not shown | 39 | 248 | 1310
α1-antitrypsin C232S K335A (natural protein, α1-antitrypsin, wild-type (M) ORF on the C232S background; Same construct as m3 with the stated changes; source: E. coli SG13009/pREP4 (pQE-30) or BL21(DE3) (pQE-81L), purified; not shown: His6, N-terminal, kept) not shown | 2520 | 14200 | 40400
